# Measurements: PubChem BioAssay AID588855 (National Center for Advancing Translational Sciences (NCATS), 2011)
# Screen size: about 410,000 compounds; about 5,000 (1.2%) were called active. Inconclusive results, whose numbers are uncertain, are shown with a selection of clear calls. Calls come from the whole dose curve; as a rule, active = well fitted inhibition curve with a large enough effect; inconclusive = small, poorly fitted or top-dose-only effect; inactive = no such curve, though single readings can be large or run the other way. Potencies beside an inconclusive call are fits to weak or partial responses and may not hold up.
# Test: qHTS for Inhibitors of TGF-b; note: nearly all actives have a fitted effect of over 65% in size
# Settings: HepG2 CAGA-GFP TGF-b/SMAD3 reporter, GFP fluorescence, 18 h, TGF-beta stimulated, 500 pg/mL final; series mostly up to 46.1 µM; activity, negative = inhibition: at the top concentration
# Summary of the method: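 HEPG2 CAGA-GFP, 1000 cells/well; 2 h settle, 37 C; cpd via pin tool; TGF-b 500 pg/mL final; 18 h, 37 C; GFP imaging ex488/em500-530; %Activity normalised to -TGF-b and +DMSO controls; CRC fit, curve class.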
# % is set by controls: 0 for no effect and ±100 for the full control effect; potency is the fitted concentration of half-maximal effect; tags give direction and shape of the fitted curve.
Compound,Potency,"activity, negative = inhibition"
O=C(Nc1nnc(C2CC2)o1)c1ccc(S(=O)(=O)N2CCCCC2)cc1,"inconclusive: 3.98 µM [inhibitor, partial curve, poor fit]",
Cc1ccc(CNC(=O)c2cnn(-c3cccc(C)c3)c2C2CCN(C(=O)OC(C)(C)C)CC2)cc1,"inconclusive: 1.12 µM [inhibitor, full curve, poor fit]",
CCOC1=C2[C@H](c3ccc(CC)cc3)N(S(=O)(=O)c3ccc(C)cc3)C[C@H]2C(C#N)(C#N)C(C#N)(C#N)C1,"inconclusive: 22.4 µM [inhibitor, single point]",
N#Cc1c(N2CCN(C(=O)c3ccccc3Cl)CC2)nc(-c2ccccc2)c2c1CCCC2,"inconclusive: 20 µM [inhibitor, single point]",
CCn1cnc2c(=O)oc3ccc(S(=O)(=O)Nc4ccc(OC)cc4)cc3c21,"inconclusive: 31.6 µM [inhibitor, single point]",
CCC1CCCCN1S(=O)(=O)c1cc(C(=O)Nc2ccc(C)c(F)c2)ccc1F (stereo not drawn),active: 11.2 µM,
Cc1cc(S(=O)(=O)N2CCN(c3ccccn3)CC2)c(C)cc1Cl,"inconclusive: 35.5 µM [inhibitor, single point]",
Cc1ccc(-n2ncc(C(=O)Nc3cc(Cl)cc(Cl)c3)c2C2CCNCC2)cc1C,"inconclusive: 35.5 µM [inhibitor, single point]",
CCOC(=O)NN1C(=O)c2ccccc2NC1c1ccc(N(C)C)cc1 (stereo not drawn),"inconclusive: 6.31 µM [inhibitor, single point]",
COc1ccc(N(CC(=O)N2CCN(Cc3ccc4c(c3)OCO4)CC2)S(=O)(=O)c2ccc(F)cc2)cc1,,inactive: -20.5%
Cc1cc(C)nc(/N=C(\N)Nc2ccc(C(C)C)cc2)n1,"inconclusive: 20 µM [inhibitor, single point]",
COC(=O)c1c(NC(=O)CN2CCC3(O)CCCCC3C2c2ccccc2OC)sc(C)c1C (stereo not drawn),"inconclusive: 20 µM [inhibitor, single point]",
Cc1cc(/C=N/NC(N)=S)c(C)n1-c1ccc(Br)cc1,active: 12.6 µM,
CC(C)COc1ccc(-c2nn(-c3ccccc3)cc2C(=O)Nc2nccs2)cc1,"inconclusive: 14.1 µM [inhibitor, partial curve, poor fit]",
Cc1cc(C)cc(NC(=O)Nc2nnc(N(C)C3CCCCC3)s2)c1,,inactive: 2.98%
Cc1ccc(/C=C/C(=O)c2ccc(C)cc2)cc1,,inactive: -5.69%
O=C(c1ccc(Cl)c(S(=O)(=O)N2CCCC2)c1)N1CCN(c2ccccc2)CC1,,inactive: -27.3%
COc1ccc(C(=O)COC(=O)C2CCCN2C(=O)C23CC4CC(CC(C4)C2)C3)cc1 (stereo not drawn),"inconclusive: 35.5 µM [inhibitor, single point]",
Clc1ccc(Cn2ncc3c(NCc4cccnc4)ncnc32)cc1,"inconclusive: 0.631 µM [inhibitor, full curve, poor fit]",
COc1ccc(CC(=O)N/N=C/c2c(C)n(C)c3ccccc23)cc1OC,"inconclusive: 35.5 µM [inhibitor, single point]",
Cc1ccc2occ(/C=C/C(=O)c3ccccc3O)c(=O)c2c1,,inactive: 31.4%
O=C(NCC(O)c1ccc([N+](=O)[O-])cc1)C(c1ccccc1)c1ccccc1 (stereo not drawn),,inactive: -7.95%
Cc1ccc(C(=O)NCC(c2cccnc2)N2CCc3ccccc3C2)cc1C (stereo not drawn),"inconclusive: 7.08 µM [inhibitor, full curve, poor fit]",

Compound,Potency,"activity, negative = inhibition"
CCCN1CCC(N(CCc2ccccc2)Cc2ccccc2)CC1,,inactive: -8.94%
Cc1nc(-c2ccc(F)cc2)sc1CCNC(=O)c1ccc(C(C)(C)C)cc1,"inconclusive: 20 µM [inhibitor, single point]",
FC(F)(F)c1nc(-c2ccccc2)ncc1-c1nnnn1-c1ccccc1,"inconclusive: 35.5 µM [inhibitor, single point]",
Nc1ncnc2oc(-c3ccoc3)c(-c3ccco3)c12,"inconclusive: 35.5 µM [inhibitor, single point]",
O=C(C1CCN(c2ncnc3c2sc2cccc(F)c23)CC1)N1CCOCC1,"inconclusive: 35.5 µM [inhibitor, single point]",
COC(=O)c1sc(NC(=S)NC(=O)c2ccc(C)cc2)nc1C,"inconclusive: 0.891 µM [inhibitor, full curve]",
COc1ccc(S(=O)(=O)NNC(=O)C(=O)NNc2ccccn2)cc1,"inconclusive: 20 µM [inhibitor, single point]",
Cc1ccc(C(=O)Nc2ccc(C(=O)N3CCCCC3)cc2)o1,,inactive: 0.0818%
CN(C(=O)c1cccc(NC(=O)Cc2ccc(NC(=O)C3CCCN(C(=O)CCc4ccccc4)C3)cc2)c1)C1CCC1 (stereo not drawn),"inconclusive: 25.1 µM [inhibitor, single point]",
COc1ccccc1-c1nnc(C2CCN(S(=O)(=O)c3ccc(F)c(C)c3)CC2)o1,"inconclusive: 8.91 µM [inhibitor, partial curve]",
COC(=O)c1cc(S(=O)(=O)NCC2CCN(Cc3ccc(Cl)cc3)CC2)c[nH]1,,inactive: 3.21%
O=C(Nc1cccc(C(=O)N2CCCCC2)c1)C1CCCCC1,,inactive: 12.1%
COc1ccccc1CNC(=O)CN1C(=O)NC(Cc2ccccc2)(c2ccccc2)C1=O (stereo not drawn),,inactive: -15.8%
CCCCNc1c(-c2ccc(SC(C)CC)c(OC)c2)nc2ccc(C)cn12 (stereo not drawn),"inconclusive: 20 µM [inhibitor, single point]",
CCC1CCCCN1C(=O)c1cc(-c2ccc(Cl)c(Cl)c2)on1 (stereo not drawn),"inconclusive: 12.6 µM [inhibitor, partial curve]",
COc1cccc(C2C3=C(N=c4s/c(=C\c5cccc(O)c5)c(=O)n42)c2ccccc2CC3)c1OC (stereo not drawn),active: 17.8 µM,
Cc1nnc(Sc2nc3ccccc3o2)c2ccccc12,active: 12.6 µM,
O=[N+]([O-])c1cn(Cc2ccc(Cl)cc2)cn1,"inconclusive: 15.8 µM [inhibitor, single point]",
CCCCC1=CC2=C(c3ccco3)C(=O)C(C)(OC(=O)c3ccc(OC)cc3)C(=O)C2=CN1C1CC1 (stereo not drawn),,inactive: -1.65%
Fc1ccc(CNC(=S)Nc2cccc(C(F)(F)F)c2)cc1,"inconclusive: 35.5 µM [inhibitor, partial curve, poor fit]",
O=C(Oc1ccc2ccccc2c1Br)N1CCCCCC1,"inconclusive: 25.1 µM [inhibitor, partial curve, poor fit]",
CCOc1ccc(N2CC(c3nc4ccccc4n3CCOc3ccccc3)CC2=O)cc1 (stereo not drawn),active: 15.8 µM,
COc1ccc(CNC(=O)CN(Cc2ccc(OC)cc2)C(=O)CCC(=O)Nc2nccs2)cc1,,inactive: -2.42%

Compound,Potency,"activity, negative = inhibition"
Nc1ncncc1-c1ccc([N+](=O)[O-])cc1,,inactive: -18.1%
Cc1c(CN2CCC(CO)(Cc3cccc(C(F)(F)F)c3)CC2)c2ccccc2n1C,"inconclusive: 35.5 µM [inhibitor, single point]",
O=C(Cc1cccs1)Nc1nnc(SCc2ccc(C(F)(F)F)cc2)s1,"inconclusive: 35.5 µM [inhibitor, single point]",
COc1cc(S(=O)(=O)N2CCN(c3ccccc3)CC2)ccc1F,,inactive: 5.56%
NC(=S)NN=C(c1ccccc1)c1ccccc1,"inconclusive: 35.5 µM [inhibitor, single point]",
CN(C(=O)Cn1nnc(-c2ccc(S(C)(=O)=O)cc2)n1)c1ccccc1,"inconclusive: 35.5 µM [inhibitor, single point]",
Cc1ccccc1NCc1nc2ccccc2n1CCOc1ccccc1,active: 14.1 µM,
COCCN(CCOC)c1nc(-c2ccc(Cl)cc2)nc2ccccc12,"inconclusive: 35.5 µM [inhibitor, single point]",
NC(=O)CC(NC(=O)Cc1cccc2ccccc12)c1ccc(N2CCc3ccccc3C2)c([N+](=O)[O-])c1 (stereo not drawn),active: 12.6 µM,
CCCc1cc(=O)oc2c3c(cc(OCC(=O)NCC4CCC(C(=O)O)CC4)c12)OC(C)(C)CC3 (stereo not drawn),"inconclusive: 11.2 µM [inhibitor, single point]",
Cc1cccc(OCCCn2c(CCNC(=O)C(C)C)nc3ccccc32)c1,"inconclusive: 11.2 µM [inhibitor, single point]",
C=CCn1cc(CN2CCC(C(=O)Nc3cccc(-c4cccc(F)c4)c3)CC2)c(C)n1,"inconclusive: 35.5 µM [inhibitor, partial curve, poor fit]",
COc1cc(C2C(C#N)=C(N)Oc3c2c(-c2ccccc2)nn3-c2ccccc2)cc(OC)c1OC (stereo not drawn),"inconclusive: 0.447 µM [inhibitor, full curve, poor fit]",
CN1CCC/C1=C1/C(=O)N(c2ccccc2)N=C1NC(=O)Nc1cccc(Cl)c1,,inactive: -11.2%
O=S(=O)(c1ccccc1)c1nc(-c2ccccc2F)oc1N1CCOCC1,"inconclusive: 20 µM [inhibitor, partial curve, poor fit]",
CCCCn1c(SCC(=O)N2CCN(c3ccccc3)CC2)nc2ccsc2c1=O,"inconclusive: 4.47 µM [inhibitor, partial curve]",
O=C1CSC(=S)N1Cc1cccnc1,active: 7.94 µM,
COc1cc2ccccc2cc1C(=O)Nc1ccc2oc(-c3cccc(C)c3)nc2c1,,inactive: 1.7%
CCOC(=O)C1=C(C)N=C2SC(C)C(=O)N2C1c1cccc(F)c1 (stereo not drawn),,inactive: -4.19%
COC(=O)c1[nH]c2c(c1C)C(=O)CC(c1ccccc1)C2 (stereo not drawn),"inconclusive: 1.78 µM [inhibitor, full curve]",
O=C(C1CC2CCC1C2)N1CCN(Cc2ccc3c(c2)OCO3)CC1 (stereo not drawn),"inconclusive: 3.98 µM [inhibitor, single point]",
O=C(CNC(=O)c1cccs1)NCC(=O)OCc1c(Cl)cccc1Cl,"inconclusive: 35.5 µM [inhibitor, partial curve, poor fit]",
